According to patent US20250101074A1 (Affibody, published 2025):
Where two headings read alike, the source gives them in different places.

Tests used:
human IL-17A [1] = molecular target: T1, human IL-17A (human, UniProt Q16552 20-155); assay: KinExA, ZAZ in complex with HSA, IL-17A as titrant
T1 construct: Peprotech cat. no; 200-17; homodimeric cytokine; biotinylated with Sulfo-NHS-LC-Biotin for the ELISAs; also called hIL-17A; rhIL-17A
T1 sequence: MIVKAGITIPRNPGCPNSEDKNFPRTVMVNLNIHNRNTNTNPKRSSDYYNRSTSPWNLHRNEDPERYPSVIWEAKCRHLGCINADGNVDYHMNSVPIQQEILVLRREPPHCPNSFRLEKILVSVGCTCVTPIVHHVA

rhesus monkey IL-17A = molecular target: T2, rhesus monkey IL-17A (rhesus monkey, UniProt Q16552 24-155 (human entry), limits assumed); assay: SPR (Biacore), ZAZ captured on immobilized HSA, IL-17A injected
T2 construct: Cusabio cat. no; CSB-EP011597MOV; also called rmIL-17A; rmIL-17-A
T2 chain: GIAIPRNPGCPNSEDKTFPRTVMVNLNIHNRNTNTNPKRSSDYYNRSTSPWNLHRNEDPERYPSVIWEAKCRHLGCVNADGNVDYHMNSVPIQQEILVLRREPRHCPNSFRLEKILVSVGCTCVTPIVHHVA
Method: (§1) The immobilization was performed using amine coupling chemistry according to the manufacturer's protocol and using HBS-EP as running buffer. […] One flow cell surface on the chip was activated and deactivated for use as blank during analyte injections. […] The results were analyzed using the BiaEvaluation software.

human IL-17A [2] = molecular target: T1, human IL-17A; assay: KinExA, ZAZ in complex with HSA, IL-17A as titrant; ZAZ3220 in complex with HSA; KinExA
human IL-17A [3] = molecular target: T1, human IL-17A; assay: cell-based or functional assay
human IL-17A [4] = molecular target: T1, human IL-17A; assay: cell-based or functional assay; remark: listed apart in the source
human IL-17A [5] = molecular target: T1, human IL-17A; assay: cell-based or functional assay; remark: listed apart in the source
human serum albumin [6] = molecular target: T3, human serum albumin (human, UniProt P02768 25-609); assay: KinExA, ZAZ3363 in complex with IL-17A, HSA as titrant
T3 construct: also called HSA

human serum albumin [7] = molecular target: T3, human serum albumin; assay: KinExA, free ZAZ3363, HSA as titrant
cynomolgus monkey IL-17A = molecular target: T4, cynomolgus monkey IL-17A (cynomolgus monkey, UniProt Q16552 24-155 (human entry), limits assumed); assay: SPR (Biacore 2000), ZAZ polypeptide captured on immobilized HSA, cynomolgus IL-17A injected at 2.5, 10 and 40 nM, blank surface subtracted
T4 construct: Evitria, custom order; also called cIL-17A; cynomolgus IL-17A
T4 chain: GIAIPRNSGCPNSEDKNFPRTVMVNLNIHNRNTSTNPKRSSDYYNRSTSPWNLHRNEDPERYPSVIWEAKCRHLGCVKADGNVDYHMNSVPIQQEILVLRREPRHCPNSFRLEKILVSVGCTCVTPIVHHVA
Method: as §1

human IL-17F = molecular target: T5, human IL-17F (human, UniProt Q96PD4 31-163); assay: SPR (Biacore 2000), hIL-17F immobilized on a CM5 chip, 20 nM Z variant injected, blank surface subtracted
T5 construct: R&D Systems cat. no; 1335-IL/CF; also called hIL-17F
T5 sequence: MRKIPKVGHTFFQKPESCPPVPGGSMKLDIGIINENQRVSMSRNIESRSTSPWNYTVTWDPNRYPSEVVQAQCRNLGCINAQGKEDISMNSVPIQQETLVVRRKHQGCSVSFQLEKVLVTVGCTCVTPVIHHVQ
Method: The immobilization was performed using amine coupling chemistry according to the manufacturer's protocol and using HBS-EP as running buffer. One flow cell surface on the chip was activated and deactivated for use as blank during analyte injections. […] The results were analyzed using the BiaEvaluation software.

human IL-17A [8] = molecular target: T1, human IL-17A; assay: cell-based or functional assay; remark: listed apart in the source
human IL-17A [9] = molecular target: T1, human IL-17A; assay: SPR (Biacore), immobilized hIL-17A, 1:1 model
Method: One flow cell surface on the chip was activated and deactivated for use as blank during analyte injections. In the kinetic experiment, HBS-EP was used as running buffer and the flow rate was 50 μl/min. […] Kinetic constants were calculated from the sensorgrams using the Langmuir 1:1 model of BiaEvaluation software 4.1 (GE Healthcare).

T3 sequence (P02768 25-609 limits assumed): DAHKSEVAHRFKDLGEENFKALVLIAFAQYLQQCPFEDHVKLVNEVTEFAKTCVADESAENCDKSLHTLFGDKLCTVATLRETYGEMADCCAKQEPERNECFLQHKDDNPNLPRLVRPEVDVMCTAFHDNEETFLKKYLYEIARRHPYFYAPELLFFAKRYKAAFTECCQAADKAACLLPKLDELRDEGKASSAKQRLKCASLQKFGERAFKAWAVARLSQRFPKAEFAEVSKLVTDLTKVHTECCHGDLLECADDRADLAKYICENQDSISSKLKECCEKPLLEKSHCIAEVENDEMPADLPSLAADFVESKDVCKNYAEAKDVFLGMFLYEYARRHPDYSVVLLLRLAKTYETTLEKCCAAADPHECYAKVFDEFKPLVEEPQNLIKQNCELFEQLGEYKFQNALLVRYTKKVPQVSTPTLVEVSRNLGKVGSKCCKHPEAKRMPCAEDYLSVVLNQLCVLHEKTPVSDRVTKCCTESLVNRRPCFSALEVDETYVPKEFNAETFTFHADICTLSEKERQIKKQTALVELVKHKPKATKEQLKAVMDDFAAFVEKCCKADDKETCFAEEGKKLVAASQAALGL

Binder	IC50, IL-17A induced IL-6 production, NHDF cells; 0 weeks at 40 C (human IL-17A [4])	IC50, IL-17A induced IL-6 production, NHDF cells; after 2 weeks at 40 C (human IL-17A [4])	IC50, IL-17A induced IL-6 production, NHDF cells; after 4 weeks at 40 C (human IL-17A [4])	binding result (cynomolgus monkey IL-17A)	binding result (human IL-17F)	Kd (human IL-17A [9])	koff (human IL-17A [9])	kon (human IL-17A [9])	other results
ZAZ3220 (designed binder, Z-ABD-Z polypeptide; also called Z10241-[GAP-(G4S)4-TS]-PP013-[GT-(G4S)4-PR]-Z10241) VDAKYAKEADDAAVEIADLPNLTWDQWYAFISKLRDDPSQSSELLSEAKKLNDSQAPKGAPGGGGSGGGGSGGGGSGGGGSTSLAEAKEAANAELDSYGVSDFYKRLIDKAKTVEGVEALKDAILAALPGTGGGGSGGGGSGGGGSGGGGSPRVDAKYAKEADDAAVEIADLPNLTWDQWYAFISKLRDDPSQSSELLSEAKKLNDSQAPK	–	–	–	–	–	–	–	–	Kd (human IL-17A [1]): < 0.065 pM; kon (human IL-17A [1]): 1.35e+07 M⁻¹ s⁻¹; binding result (rhesus monkey IL-17A): binds; koff (human IL-17A [2]): 1.51e-07 s⁻¹; fold in vivo blocking effect compared to ZAZ3174 (human IL-17A [3]): 6 fold; IC50, IL-17A induced IL-6 production, NHDF cells, with HSA (human IL-17A [4]): 270 pM
His6-Z06455 (designed binder) MGSSHHHHHHLQVDAKYAKEMDNAQWEIWLLPNLTWAQQHAFIGKLIDDPSQSSELLSEAKKLNDSQAPKVD	–	–	–	–	–	–	–	–	IC50, IL-17A induced IL-6 production, NHDF cells, with HSA (human IL-17A [5]): 67000 pM
Z06282-ABD (designed binder) MGSSLQVDAKYAKEADQAAMEIATLPNLTWDQWFAFIAKLRDDPSQSSELLSEAKKLNDSQAPKVDSSLAEAKEAANAELDSYGVSDFYKRLIDKAKTVEGVEALKDAILAALP	–	–	–	–	–	–	–	–	IC50, IL-17A induced IL-6 production, NHDF cells, with HSA (human IL-17A [5]): 15000 pM
ZAZ3363 (designed binder, Z-ABD-Z polypeptide; also called Z14253-[ASGS]-PP013-[GT-G4S]-Z14253) AEAKYAKEADDAAVEIASLPNLTWDQWYAFIQKLRDDPSQSSELLSEAKKLNDSQAPKASGSLAEAKEAANAELDSYGVSDFYKRLIDKAKTVEGVEALKDAILAALPGTGGGGSAEAKYAKEADDAAVEIASLPNLTWDQWYAFIQKLRDDPSQSSELLSEAKKLNDSQAPK	380 pM	250 pM	490 pM	binds	–	–	–	–	Kd (human IL-17A [1]): 0.323 pM; koff (human IL-17A [1]): 1.55e-06 s⁻¹; kon (human IL-17A [1]): 4.78e+06 M⁻¹ s⁻¹; Kd (human serum albumin [6]): 29.4 pM; koff (human serum albumin [6]): 3.56e-05 s⁻¹; kon (human serum albumin [6]): 1.21e+06 M⁻¹ s⁻¹; Kd (human serum albumin [7]): 48.5 pM
ZAZ3364 (designed binder, Z-ABD-Z polypeptide; also called Z14254-[ASGS]-PP013-[GT-G4S]-Z14254) AEAKYAKEADDAAVEIAALPNLTWDQWFAFISKLRDDPSQSSELLSEAKKLNDSQAPKASGSLAEAKEAANAELDSYGVSDFYKRLIDKAKTVEGVEALKDAILAALPGTGGGGSAEAKYAKEADDAAVEIAALPNLTWDQWFAFISKLRDDPSQSSELLSEAKKLNDSQAPK	200 pM	400 pM	470 pM	binds	–	–	–	–	–
ZAZ3365 (designed binder, Z-ABD-Z polypeptide; also called Z14255-[ASGS]-PP013-[GT-G4S]-Z14255) AEAKYAKEADQAAVEIADLPNLTWAQWYAFIQKLRDDPSQSSELLSEAKKLNDSQAPKASGSLAEAKEAANAELDSYGVSDFYKRLIDKAKTVEGVEALKDAILAALPGTGGGGSAEAKYAKEADQAAVEIADLPNLTWAQWYAFIQKLRDDPSQSSELLSEAKKLNDSQAPK	450 pM	340 pM	550 pM	binds	–	–	–	–	–
His6-Z10508 (designed binder) MGSSHHHHHHLQVDAKYAKEADDAAVEIAALPNLTWDQWFAFISKLRDDPSQSSELLSEAKKLNDSQAPKVD	–	–	–	–	no binding (tested: 20 nM)	4000 pM	0.002 s⁻¹	510000 M⁻¹ s⁻¹	IC50, IL-17A induced IL-6 production, NHDF cells (human IL-17A [8]): 5700 pM
His6-Z10532 (designed binder) MGSSHHHHHHLQVDAKYAKEADDAAVEIASLPNLTWDQWYAFIQKLRDDPSQSSELLSEAKKLNDSQAPKVD	–	–	–	–	no binding (tested: 20 nM)	2400 pM	0.0015 s⁻¹	620000 M⁻¹ s⁻¹	IC50, IL-17A induced IL-6 production, NHDF cells (human IL-17A [8]): 6400 pM
His6-Z15167 (designed binder) MGSSHHHHHHLQVDAKYAKEADDAAVEIASLPNLTWAQWYAFIQKLRDDPSQSSELLSEAKKLNDSQAPKVD	–	–	–	–	no binding (tested: 20 nM)	1100 pM	0.0014 s⁻¹	1.3e+06 M⁻¹ s⁻¹	–
